Test results reported in the RNAGym collection of RNA variant scans (doi:10.7554/elife.90254).
Read counts are not given, so values of variants with three or more changes are uncertain.

B1: LINE1-mini (parent)
chain: GGCAGAGCUCAACACAGCGUGGCAAAGUGGCUGUGGCUAGACUGCC

Variants of: B1
Assay: self-cleavage, relative activity (ratio to wild type); higher = more cleavage; in vitro, sequencing; the parent is a self-cleaving ribozyme
C13A A26C G33A gave a self-cleavage of 0.05. For C13A A26C U32G U43A, the self-cleavage was 0.07. With C13A A26G C37A the self-cleavage was 0.02. For C13A A26G U43G C45A, the self-cleavage was 0.05. With C13A A26U C31A C46U the self-cleavage was 0.62. For C13A A26U G30U G33C C46A, the self-cleavage was 0.06. Work on C13A A39G U43C C45G yielded a self-cleavage of 0.08. For C13A A41U U43G, the self-cleavage was 0.18. With C13A C15A A16G A26G G27C the self-cleavage was 0.1. For C13A C15A C18U U32A, the self-cleavage was 0.03. In the case of C13A C15A G29C G36A, the self-cleavage is reported as 0.05. C13A C15A G40A showed a self-cleavage of 0.22. In the case of C13A C15G A25U U32G G33A A39C, the self-cleavage is reported as 0.01. In the case of C13A C15G G21U G44U, the self-cleavage is reported as 0.01. C13A C15G G35C showed a self-cleavage of 0.09. In the case of C13A C15G G44A, the self-cleavage is reported as 0.01. C13A C15G U20C G33C C46G showed a self-cleavage of 0.01. C13A C15U A26G C31G C37G showed a self-cleavage of 0.06. Variant C13A C15U C18G G33A has a self-cleavage of 0.02. Work on C13A C15U C23G C42A yielded a self-cleavage of 0.04. With C13A C15U G27U G36U the self-cleavage was 0.05. Variant C13A C18A A25G G36C has a self-cleavage of 0.02. Variant C13A C18A G19C has a self-cleavage of 0.07. Variant C13A C18A G19C A39C has a self-cleavage of 0.17. C13A C18A G21A C31A showed a self-cleavage of 0.01. With C13A C18G C23A G35C C37U the self-cleavage was 0.15. For C13A C18G G19A G30A, the self-cleavage was 0.14. Variant C13A C18U G19A has a self-cleavage of 0.11. For C13A C18U G19C G29U G30U, the self-cleavage was 0.5. Variant C13A C18U G19U G21U C37A has a self-cleavage of 0.03. Work on C13A C18U G30A G35C U43A yielded a self-cleavage of 0.11. For C13A C18U G33U, the self-cleavage was 0.06. Variant C13A C23A A24U has a self-cleavage of 0.02. Variant C13A C23G A24C G36A has a self-cleavage of 0.22. C13A C23G C45A showed a self-cleavage of 0.2. Work on C13A C23G G29A U38C yielded a self-cleavage of 0.07. For C13A C23G U34C, the self-cleavage was 0.07. For C13A C23U G27C U28A, the self-cleavage was 0.03. C13A C31A C42A showed a self-cleavage of 0.02. Variant C13A C31A U38A G40C has a self-cleavage of 0.04. For C13A C31U A39G, the self-cleavage was 0. C13A C45A C46G gave a self-cleavage of 0.07. Work on C13A G17A G22U G33A yielded a self-cleavage of 0.02. C13A G17C U32A C45U showed a self-cleavage of 0.16. For C13A G17U C18U, the self-cleavage was 0.05. With C13A G17U G19A C23G G36C U38G the self-cleavage was 0.03. C13A G17U G40U A41U showed a self-cleavage of 0.44. Work on C13A G17U U20A G27A yielded a self-cleavage of 0.05. For C13A G19A C31G U34A, the self-cleavage was 0.02. Variant C13A G19A G21A G29C has a self-cleavage of 0.06. For C13A G19A G21U G29C, the self-cleavage was 0.07. Variant C13A G19A G29C G35A has a self-cleavage of 0.19. C13A G19C C37A showed a self-cleavage of 0.01. C13A G19C C46G gave a self-cleavage of 0.04. With C13A G19C G21C A25G C31G the self-cleavage was 0.02. In the case of C13A G19U A25U G30U, the self-cleavage is reported as 0.13. Work on C13A G19U G30A yielded a self-cleavage of 0.09. For C13A G19U U20A A24G, the self-cleavage was 0.1. C13A G21A A26U G30U C45G gave a self-cleavage of 0.07. Variant C13A G21U A26C G35U has a self-cleavage of 0.18. Variant C13A G21U C23G has a self-cleavage of 0.09. In the case of C13A G21U C23U G33U U34C, the self-cleavage is reported as 0.34. In the case of C13A G21U U32A A39U, the self-cleavage is reported as 0.01. For C13A G22A C42A C46G, the self-cleavage was 0.08. Work on C13A G22A G27A U28C U34C yielded a self-cleavage of 0.17. In the case of C13A G22A G29U, the self-cleavage is reported as 2.22. C13A G22A G35C showed a self-cleavage of 0.12. In the case of C13A G22A G40U, the self-cleavage is reported as 0.02. C13A G22C C37G A41C U43A gave a self-cleavage of 0.01. Variant C13A G22C C46U has a self-cleavage of 0.09. Variant C13A G22U A26U has a self-cleavage of 0.06. Work on C13A G22U G35C yielded a self-cleavage of 0.06. For C13A G22U U28C G29A G44A, the self-cleavage was 0.11. Variant C13A G27A A39C has a self-cleavage of 0.13. C13A G27A U32C G35C G36A showed a self-cleavage of 0.08. Work on C13A G27C C37A yielded a self-cleavage of 0.02. In the case of C13A G27C G30A U34C G36U, the self-cleavage is reported as 0.05. C13A G27U A41C gave a self-cleavage of 0.08. With C13A G29C C37U the self-cleavage was 0.03. In the case of C13A G29C U43A, the self-cleavage is reported as 0.1. Work on C13A G29U A39C yielded a self-cleavage of 0.02. C13A G30A C31G gave a self-cleavage of 0.03. With C13A G30A C46A the self-cleavage was 0.05. With C13A G30A U32G C42G the self-cleavage was 0.02. With C13A G30C U38C A39C the self-cleavage was 0.12. Work on C13A G30U A39G yielded a self-cleavage of 0.02. With C13A G30U G35U A39G the self-cleavage was 0.01. In the case of C13A G30U U32A, the self-cleavage is reported as 0.03. C13A G33C C37U U38G gave a self-cleavage of 0.01. C13A G33U U38G U43C showed a self-cleavage of 0.04. C13A G35C C42U gave a self-cleavage of 0.02. C13A G36A C37U C45U showed a self-cleavage of 0.08. For C13A G36A C42U, the self-cleavage was 0.04. For C13A G36A U38C, the self-cleavage was 0.02. Variant C13A G36U U43C has a self-cleavage of 0.02. Variant C13A G40A U43C has a self-cleavage of 0.08. C13A G40C G44U showed a self-cleavage of 0.14. In the case of C13A U20G C37G, the self-cleavage is reported as 0.01. For C13A U28A C31A U34A, the self-cleavage was 0.14. With C13A U32A C37U the self-cleavage was 0.09. In the case of C13A U32A G36A, the self-cleavage is reported as 0.04. With C13A U32A G40C the self-cleavage was 0.1. With C13A U32C A41U the self-cleavage was 0.16. Variant C13A U32G G40U A41U has a self-cleavage of 0.14. In the case of C13A U38C C46A, the self-cleavage is reported as 0.07. C13G A14C G17C C37G C46U showed a self-cleavage of 0. C13G A14C G22A showed a self-cleavage of 0.02. Work on C13G A14G G22A C23U G35A yielded a self-cleavage of 0.04. C13G A14G G29C G36A C45A gave a self-cleavage of 0.06. For C13G A14G U20C G22A C31A, the self-cleavage was 0.01. C13G A14U A26U G40C C42U showed a self-cleavage of 0.05. For C13G A14U G19U, the self-cleavage was 0.06. Variant C13G A16U A26G has a self-cleavage of 0.06. C13G A16U G21C U32A C45U gave a self-cleavage of 0.03. Variant C13G A24C A26G G27U U32A G33A has a self-cleavage of 0.02. In the case of C13G A24G C31U C46A, the self-cleavage is reported as 0.05. For C13G A24U A39G C45G, the self-cleavage was 0.07. C13G A24U G40C gave a self-cleavage of 0.01. In the case of C13G A25C G29U G36A, the self-cleavage is reported as 0. For C13G A25U U38G, the self-cleavage was 0.01. Variant C13G A25U U43G has a self-cleavage of 0. For C13G A26C G35A G44A, the self-cleavage was 0.02. Variant C13G A26C U28G U32G G36U A41G has a self-cleavage of 0.08. C13G A26C U34A G35U showed a self-cleavage of 0.14. C13G A26U G30U gave a self-cleavage of 0.06. Work on C13G A41G G44U yielded a self-cleavage of 0.06. C13G C15A A16C G17A C18G U38A gave a self-cleavage of 0.14. C13G C15A G17U A24C C46A gave a self-cleavage of 0.08. Variant C13G C15A G19A G33A has a self-cleavage of 0.07. Work on C13G C15A G35A C46A yielded a self-cleavage of 0.12. Variant C13G C15G A24C G27C has a self-cleavage of 0.02. With C13G C18A U43G the self-cleavage was 0.01. C13G C18G C23G G35U gave a self-cleavage of 0.24. For C13G C18G G21A G27U A41U C46A, the self-cleavage was 0.12. In the case of C13G C18G G22A A39G, the self-cleavage is reported as 0.02. C13G C18U A26U C31G C46U gave a self-cleavage of 0.01. Variant C13G C18U U28G G30C G33U C46U has a self-cleavage of 0.03. For C13G C23A A26U G27C U28A C42A, the self-cleavage was 0.04. Variant C13G C23A G29U G36U has a self-cleavage of 0.18. C13G C23G C31A C37U A39G gave a self-cleavage of 0.01. C13G C23U A25C G30U gave a self-cleavage of 0.03. Work on C13G C23U C37A yielded a self-cleavage of 0.11. Work on C13G C23U G36U yielded a self-cleavage of 0.09. C13G C31A A39G showed a self-cleavage of 0.02. Variant C13G C31A A41G C42A has a self-cleavage of 0.2. Work on C13G C31A C37G C42A yielded a self-cleavage of 0.02. C13G C31A G44A gave a self-cleavage of 0.31. Variant C13G C31U A39C has a self-cleavage of 0.03. In the case of C13G C31U G40C C46U, the self-cleavage is reported as 0.01. For C13G C37G U43A, the self-cleavage was 0.01. Work on C13G C37U C46U yielded a self-cleavage of 0.18. Work on C13G G17A G21U A26G G44A yielded a self-cleavage of 0.07. C13G G17A G22C G36C showed a self-cleavage of 0.03. With C13G G17C A25U the self-cleavage was 0.04. Work on C13G G17U C45U yielded a self-cleavage of 0.1. In the case of C13G G17U G21U U28G C37A, the self-cleavage is reported as 0.05. In the case of C13G G19A G22U G44C, the self-cleavage is reported as 0.06. Variant C13G G19A U34C G35C has a self-cleavage of 1.18. For C13G G19C A24C, the self-cleavage was 0.24. C13G G19C A26U G30U A39G gave a self-cleavage of 0.02. C13G G19C C23U C31U showed a self-cleavage of 0.14. C13G G19C G30U G36U gave a self-cleavage of 0.16. C13G G19C G40A gave a self-cleavage of 0.1. C13G G19C U32C gave a self-cleavage of 0.04. Variant C13G G19U A24C has a self-cleavage of 0.48. Variant C13G G19U G30A A41G has a self-cleavage of 0.04. For C13G G19U U20G G33A C45U, the self-cleavage was 0.
